Reference: PubChem BioAssay AID1625 (Sanford-Burnham Center for Chemical Genomics, 2009)
This is one part of the list. The main result of the screen is listed elsewhere. These columns were measured beside it and carry no call. Most of these compounds were active or inconclusive in the main read-out, so they are no random draw.

Assay: insulin promoter activators in MIN6 cells, imaging, high-content screening, mouse beta cells (AID 1625);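 note: total cells summed across four imaged fields per well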
Details: MIN6 insulin promoter-GFP reporter, measured here: cytotoxicity, nuclei count, at 5 µM

| Structure (SMILES) | cell count |
| --- | --- |
| Cc1oc(C)c2c(=O)ccc3c(c12)OC(N)=C(C#N)C3c1ccccc1 (stereo unspecified) | 1580 cells |
| COc1cccc(F)c1C(C[N+](=O)[O-])c1c(N)n(C)c(=O)n(C)c1=O (stereo unspecified) | 291 cells |
| CC[n+]1c(C)n(-c2ccccc2)c2ccc(NC(C)=O)cc21 | 223 cells |
| CCN(CC)S(=O)(=O)c1ccc(/C=C/C(=O)Nc2ccc(F)c(F)c2F)cc1 | 441 cells |
| COc1ccc(N/N=C(/N=Nc2nc(C)cc(=O)[nH]2)c2ccccc2)cc1 | 291 cells |
| CN1CCS/C1=C/C=C1/SC(=S)N(Cc2ccccc2)C1=O | 1200 cells |
| Cc1ccc(NC(=O)COC(=O)c2csc3c2CCC(C)C3)cc1S(=O)(=O)N1CCCCC1 (stereo unspecified) | 340 cells |
| COc1cc(C(=O)Oc2cccc(Nc3ncnc4ccccc34)c2)cc(OC)c1OC | 420 cells |
| O=C(/C=C/c1ccco1)NC(=S)Nc1ccccc1N1CCCC1 | 1430 cells |
| CN1CCN(C2=CC3=CC(=C(C#N)C#N)CCC3CC2)CC1 (stereo unspecified) | 958 cells |
| N#CC1CC(c2ccc([N+](=O)[O-])cc2)=NN1c1ccc([N+](=O)[O-])cc1 (stereo unspecified) | 1160 cells |
| COC(=O)Cc1c(C)nc2nc(NCc3ccccc3OC)[nH]n2c1=O | 1690 cells |
| CCN1/C(=C/C=C/c2oc3ccc(-c4ccccc4)cc3[n+]2CC)Oc2ccc(-c3ccccc3)cc21 | 309 cells |
| O=C(c1ccc(CSc2nc3ccncc3[nH]2)cc1)N1CCN(c2cccc(Cl)c2)CC1 | 480 cells |
| C/C(=N\Nc1ccc([N+](=O)[O-])cc1)c1cc2ccccc2o1 | 1530 cells |
| COc1ccc(OC)c(S(=O)(=O)Nc2ccc(Oc3ccccc3)cc2)c1 | 447 cells |
| CC[n+]1c(/C=C/Nc2ccccc2)sc2ccccc21 | 436 cells |
| CCOC(=O)CC1C(=O)NCCN1c1nc2c(C)cccn2c(=O)c1/C=C1\SC(=S)N(C(C)CC)C1=O (stereo unspecified) | 862 cells |
| Cc1ccccc1-n1ncc2c(SCC(=O)NCc3cccs3)ncnc21 | 1460 cells |
| Cc1ccc(-n2c(-c3ccccc3)c[n+]3c2CCc2ccccc2-3)c(C)c1 | 276 cells |
| O=C(Nc1nc2ccccc2s1)C1CCN(S(=O)(=O)c2cc([N+](=O)[O-])ccc2Cl)CC1 | 312 cells |
| N#C/C(=C\c1ccc(-c2ccc(C(=O)O)cc2)o1)c1nc2ccccc2[nH]1 | 1480 cells |
| CC(C)CCNC(=O)C(=O)NC1CCCC1 | 455 cells |
| c1ccc(-c2ccc(-c3nccc4ccccc34)[nH]2)cc1 | 1120 cells |
| Cc1ccc2nc(NC(=O)C3CCN(S(=O)(=O)c4cc([N+](=O)[O-])ccc4Cl)CC3)sc2c1 | 402 cells |
| CSC1=NCCN1C(=O)c1c(F)cccc1F | 278 cells |

| Structure (SMILES) | cell count |
| --- | --- |
| CC(=O)O[C@H]1C(=O)[C@@]2(C)[C@H]([C@H](OC(=O)c3ccccc3)[C@]3(O)C[C@H](OC(=O)[C@H](O)C(NC(=O)c4ccccc4)c4ccccc4)C(C)=C1C3(C)C)[C@]1(OC(C)=O)CO[C@@H]1C[C@@H]2O (stereo partly specified) | 486 cells |
| O=C(NC1=NCCS1)C1Cc2ccccc2CN1C(=O)c1ccccc1 (stereo unspecified) | 1280 cells |
| CN(C)c1ncnc2c1NC1=C(S2)C(=NCCCC(=O)O)CC(C)(C)C1 | 415 cells |
| Cc1sc(NC(=O)CN2CCOCC2)nc1-c1ccc2c(c1)CCN2S(=O)(=O)c1ccccc1 | 446 cells |
| CCCN1Cc2cccc(C(=O)Nc3ccc(S(=O)(=O)N4CCCCCC4)cc3)c2C1=O | 398 cells |
| CCCCCCCCCn1c2c(c(=N)c3c1CCC3)CCC2 | 268 cells |
| CCN(CC)c1ccc(/C=C/C(=O)c2ccc(Br)cc2)cc1 | 1160 cells |
| O=C(C1=C(O)C(=O)N(c2nccs2)C1c1ccccc1)c1cc2ccccc2o1 (stereo unspecified) | 1440 cells |
| COC(=O)c1c(NC(=O)CC2Nc3cc(C)c(C)cc3NC2=O)sc(C)c1C (stereo unspecified) | 1380 cells |
| CCCCn1c(O)c(/C=C/C=C/C=Nc2ccccc2)sc1=S | 1180 cells |
| Cc1nc(N2CCN(c3ccccc3)CC2)c2c3c(sc2n1)CCC3 | 210 cells |
| Cc1ccc(Nc2nc3ccccc3nc2Nc2c(C)n(C)n(-c3ccccc3)c2=O)cc1 | 413 cells |
| N#C/C(=C/c1ccc(N2CCOCC2)o1)c1ccc(Cl)cc1 | 1360 cells |
| Cc1sc2ncnc(NCc3ccco3)c2c1C | 423 cells |
| CC(/C=C/C1(O)C(C)CC(O)CC1(C)C)OC1OC(CO)C(O)C(O)C1O (stereo unspecified) | 474 cells |
| Cc1ccccc1-c1nnc(-c2ccc(Cl)cc2)o1 | 721 cells |
| CCCCCCCCCn1ccc(=N)cc1 | 337 cells |
| CCCCCCCCCCCCCCCCn1cc[n+](CC(C)=O)c1 | 379 cells |
| CCOC(=O)/C(C#N)=C/C=C1\C=Cc2ccccc2N1CC | 1190 cells |
| Cc1oc2ccc(OS(C)(=O)=O)cc2c1C(=O)OC(C)C | 369 cells |
| CC(=O)Nc1ccc(C(=O)N(C)C(C(=O)Nc2ccccc2)c2ccccn2)cc1 (stereo unspecified) | 488 cells |
| Cc1ccc(NC(=O)Cc2nn(C)c(=O)c3ccccc23)cc1F | 255 cells |
| CN(CCOc1ccc(Cl)cc1)c1ccc(S(=O)(=O)N2CCCCC2)cn1 | 354 cells |
| CCN1C(=O)/C(=C/C=C2\N(CC)c3cc(S(=O)(=O)N(C)C)ccc3N2c2ccccc2)SC1=S | 1010 cells |
| CCOC(=O)N1CCN(C(=O)c2cc(S(=O)(=O)N3CCCC3)cn2C)CC1 | 1340 cells |
| CC(C)OCCCNc1ncnc2c1[nH]c1ccccc12 | 449 cells |

| Structure (SMILES) | cell count |
| --- | --- |
| CNC(=O)c1c(NC(=O)c2ccc(S(=O)(=O)N3CCCc4ccccc43)cc2)sc2c1CCN(C)C2 | 1040 cells |
| CC(=O)Nc1ccc(Oc2cc(C#N)c(C#N)cc2N2CCCCCC2)cc1 | 363 cells |
| CCCCC(=O)Nc1ccc2c(c1)nc1n2CCSC1 | 809 cells |
| c1ccc(CN2CCN(c3nc(-c4ccccn4)nc4ccccc34)CC2)cc1 | 465 cells |
| CCC(=O)Nc1ccc(C(=O)OCC(=O)c2ccc(C)c([N+](=O)[O-])c2)cc1 | 1440 cells |
| Cc1onc(-c2ccccc2Cl)c1C(=O)N(C)C1CCCCC1 | 362 cells |
| Cc1cc(Cl)n2c(nc3ccccc32)c1C#N | 314 cells |
| O=[N+]([O-])c1ccc(/C=N/N=C/c2ccc([N+](=O)[O-])o2)o1 | 369 cells |
| O=Cc1cc2ccccc2nc1SCc1ccc(Cl)c(Cl)c1 | 442 cells |
| COc1cc([C@@H]2[C@H]3CN(C)CC=C3C(C#N)=C(N)C2(C#N)C#N)cc2c1OCO2 | 1320 cells |
| CN1C2CCC1/C(=C/c1cccn1C)C(=O)/C2=C\c1cccn1C | 1080 cells |
| Nc1c(C(=O)c2ccccc2)sc2nsc(SCCN3CCCC3)c12 | 801 cells |
| Cc1cc(/C=C2/SC(=S)N(c3ccc([N+](=O)[O-])cc3)C2=O)c(C)n1-c1cccnc1 | 276 cells |
| Cc1ccc(-n2c3c(c(=O)[nH]c2=O)C(C(F)(F)F)(C(F)(F)F)NC(=O)N3)cc1 | 1550 cells |
| CCS(=O)(=O)n1nc(-c2ccccc2)cc1N | 365 cells |
| Cc1cccc(Cn2c(SCCN3CCCCC3)nc3c2c(=O)[nH]c(=O)n3C)c1 | 495 cells |
| CCOC(=O)c1nnn(-c2nonc2N)c1-c1ccc(OCC)cc1 | 1950 cells |
| Cc1ccc(N2C(=O)c3cccc4c(N5CCN(C)CC5)ccc(c34)C2=O)c2cccnc12 | 1340 cells |
| CC(C)OC(=O)c1c2c(n3ccccc13)C(=O)c1ccccc1C2=O | 1450 cells |
| CCOC(=O)c1sc2nc(CC(=O)OC)nc(NCc3ccc(F)cc3)c2c1C | 451 cells |
| CN(C)c1ccc(/C=C2\SC(=S)N(Nc3ncc(C(F)(F)F)cc3Cl)C2=O)cc1 | 1510 cells |
| CCOc1ccccc1C(=O)N1CCN=C1SC | 437 cells |
| O=C(N/N=C/c1ccccc1O)c1cccc(C(F)(F)F)c1 | 469 cells |
| CCCOc1ccc(-c2nn(-c3ccccc3)cc2/C=C2\SC(=S)N(C3CCS(=O)(=O)C3)C2=O)cc1 (stereo unspecified) | 961 cells |
| Cc1cc(NC(=S)N(Cc2ccc(Br)cc2)Cc2ccc(C(=O)O)cc2)ccc1Cl | 1190 cells |
| Cc1cc(C)c(C(=O)O)c(CC(C)(C)C(=O)O)c1 | 1360 cells |

| Structure (SMILES) | cell count |
| --- | --- |
| CN(/N=C\c1ccc(O)c(O)c1)c1nc(-c2ccccc2)cc(-c2ccccc2)n1 | 324 cells |
| O=C(CSc1nnc(Cn2nnc3ccccc32)o1)N(Cc1ccc(Cl)cc1)c1ccccc1 | 446 cells |
| Cc1ccc(OCCN2CCN(C(=O)CCC(=O)Nc3nnc(C(C)C)s3)CC2)cc1 | 208 cells |
| Cc1cc(=O)oc2cc(OCC(=O)OCC(=O)NC3CC3)ccc12 | 1360 cells |
| Nc1c(C(=O)O)sc2nc(-c3ccccc3)cc(-c3ccccc3)c12 | 1410 cells |
| CCCCCCc1cc2cc(-c3nnc(-c4ccccc4OC)o3)c(=O)oc2cc1O | 699 cells |
| O=C1N=C2N(CCN3CCCCC3)c3ccccc3N2/C1=C\c1ccc([N+](=O)[O-])o1 | 410 cells |
| CC(=O)c1cc(F)c(N2CCN(C(=O)COc3ccc(F)cc3)CC2)cc1C | 458 cells |
| COc1ccc(-c2c[n+]3c(n2-c2ccccc2)SCC3)cc1 | 457 cells |
| Oc1c(/C=C/C=C/C=Nc2ccccc2)sc(=S)n1Cc1ccccc1 | 1090 cells |
| COc1ccccc1NS(=O)(=O)c1cc([N+](=O)[O-])ccc1N/N=C/c1sc(N2CCOCC2)nc1-c1ccccc1 | 1440 cells |
| CSC1=NCCN1C(=O)c1c(F)cccc1Cl | 454 cells |
| Clc1cccc(Cl)c1NC1=NCCC1 | 457 cells |
| CCN(C(=O)CSc1nc2cc(C(=O)OC)ccc2c(=O)n1Cc1ccco1)c1cccc(C)c1 | 1440 cells |
| CCCN1C=CC(=CC=C(C#N)C#N)C=C1 | 1390 cells |
| CCCCNc1ccc2c3c(cccc13)C(=O)N(CCCC)C2=O | 1020 cells |
| O=C(Nc1ccon1)c1cccc(S(=O)(=O)N2CCCCC2)c1 | 1400 cells |
| CCOC(=O)c1nn(-c2ccccc2C)c2nc(Nc3ccccc3)cc(=O)n12 | 474 cells |
| COc1cc(Cl)c(C)cc1NC(=O)CN(C)Cc1cccc(OC)c1OC | 1010 cells |
| CC(C)OC(=O)c1cc(NC(=S)Nc2ccc([N+](=O)[O-])cc2)cc(C(=O)OC(C)C)c1 | 304 cells |
| CCOC(=O)Cc1csc(NC(=O)c2sc3nc4c(C)cc(C)cc4cc3c2N)n1 | 1820 cells |
| CC(=O)c1cccc(N=c2scc(-c3ccc(S(=O)(=O)N4CCOCC4)cc3)n2CCO)c1 | 328 cells |
| CCOCCCNC(=O)C(NC(=O)c1ccc(=O)[nH]c1)c1ccc(Cl)cc1 (stereo unspecified) | 241 cells |
